From the supplement of paper PMC4166925
± gives the standard deviation of the averaged measurements. In all, about 33,000 sequences were measured (“E-score (dimensionless, -0.5 to 0.5)”: median about -0.049, highest 2% from about 0.37 on). Some of the results follow.

Test system: T1, PmTbr T-box DNA-binding domain (GST fusion)
T1 sequence: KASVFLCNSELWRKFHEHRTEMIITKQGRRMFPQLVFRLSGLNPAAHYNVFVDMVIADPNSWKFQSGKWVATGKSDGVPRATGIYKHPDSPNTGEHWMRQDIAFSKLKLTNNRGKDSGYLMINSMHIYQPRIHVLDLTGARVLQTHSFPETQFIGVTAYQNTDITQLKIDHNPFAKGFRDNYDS
Experiment: PBM E-score of 8-mer (E-score (dimensionless, -0.5 to 0.5)); Tbr is Tbrain of the sea star Patiria miniata (Pm) or the sea urchin Strongylocentrotus purpuratus (Sp); higher = stronger binding preference; most listed sequences are background and not binding sites
Conditions: the construct has about 5 more residues each side
In short: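 Using the Universal PBM Analysis Suite, every ungapped 8-mer received an enrichment E-score averaged over duplicate arrays. Probe intensities came from double-stranded Universal Agilent oligonucleotide arrays incubated with 200 nM GST-fused Tbr T-box DNA-binding domain in PBS (pH 7.5). That protein was expressed in BL21 E. coli at 20 °C and purified by glutathione affinity chromatography.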

| Sequence | PBM E-score of 8-mer |
| --- | --- |
| GAAATGAC | 0.177 ± 0.068 |
| GCAGGACC | -0.079 ± 0.057 |
| CCACTATA | 0.0251 ± 0.017 |
| GTTTCCGA | -0.12 ± 0.0075 |
| CCCATTCG | -0.0815 ± 0.052 |
| GCCGGAGC | -0.208 ± 0.13 |
| CAGCATCG | -0.0296 ± 0.0072 |
| AGGGATTC | -0.151 ± 0.015 |
| CGCTGGCA | 0.163 ± 0.039 |
| CCATATGC | -0.0165 ± 0.011 |
| CCCCATAA | -0.182 ± 0.07 |
| CCTATTAG | -0.0353 ± 0.025 |
| ACTCGCCG | 0.146 ± 0.035 |
| CATCCCGC | -0.174 ± 0.0089 |
| GTACACCA | -0.113 ± 0.087 |
| CAGACTCA | -0.129 ± 0.033 |
| AGCCGCGA | 0.232 ± 0.0095 |
| ATACGAGG | -0.335 ± 0.023 |
| CGTCGCGC | 0.245 ± 0.066 |
| GGACGATA | -0.0612 ± 0.089 |
| AAACTAGT | -0.177 ± 0.0073 |
| GATTCCGA | -0.212 ± 0.03 |

| Sequence | PBM E-score of 8-mer |
| --- | --- |
| ATGAGCGC | -0.289 ± 0.02 |
| AAAGATTA | -0.225 ± 0.014 |
| CGCTCTTC | -0.146 ± 0.054 |
| GGACAGAA | -0.212 ± 0.019 |
| CCTAACAG | 0.128 ± 0.033 |
| TCGCCTAA | 0.0836 ± 0.0081 |
| CATGGCTA | -0.226 ± 0.015 |
| GCTTATTA | -0.0887 ± 0.019 |
| ACGTTATG | 0.0687 ± 0.0031 |
| AGCTCATC | -0.256 ± 0.028 |
| AACTCGAA | -0.148 ± 0.026 |
| GACGGGCA | -0.257 ± 0.03 |
| CGCAGTAC | 0.0923 ± 0.025 |
| CTTGCTGC | 0.025 ± 0.004 |
| CGTTCAAC | -0.0931 ± 0.075 |
| GATGCAAC | -0.119 ± 0.089 |
| TTAAGGAA | -0.0478 ± 0.056 |
| CTAGATCA | -0.25 ± 0.079 |
| ACCGTGAG | 0.174 ± 0.0084 |
| AGGAAAGG | -0.193 ± 0.007 |
| ACACGAAG | -0.0155 ± 0.044 |
| AAATGTTC | -0.0691 ± 0.07 |

| Sequence | PBM E-score of 8-mer |
| --- | --- |
| CTTTGAGA | -0.059 ± 0.0076 |
| ATTCCGCA | 0.017 ± 0.018 |
| AACCCATG | -0.124 ± 0.012 |
| CAACATTC | 0.0444 ± 0.017 |
| TGCCACAA | 0.137 ± 0.028 |
| CGTTACGC | -0.0894 ± 0.037 |
| CCCCCTTC | -0.225 ± 0.019 |
| CTAAAAGC | -0.0348 ± 0.085 |
| AGCGCTTC | 0.0651 ± 0.013 |
| CAAAATGG | -0.00466 ± 0.074 |
| CCCGAACG | -0.194 ± 0.029 |
| TAACGGAA | -0.0214 ± 0.025 |
| CACTTGGG | 0.296 ± 0.047 |
| ACCCGGGT | -0.106 ± 0.075 |
| ACGGGACC | -0.214 ± 0.053 |
| CTCGAGGA | 0.136 ± 0.044 |
| AAGAGCAT | -0.148 ± 0.12 |
| ACATGGTG | 0.243 ± 0.0055 |
| AGTATCAG | -0.105 ± 0.034 |
| ATGGCAAG | 0.143 ± 0.0085 |
| CTGATCCC | -0.0199 ± 0.054 |
| CTACATAG | 0.0333 ± 0.043 |

| Sequence | PBM E-score of 8-mer |
| --- | --- |
| AAGCTCAC | 0.131 ± 0.011 |
| AGATGGCT | -0.0173 ± 0.0068 |
| CCCCTCGG | -0.194 ± 0.016 |
| GCTTGCGA | 0.105 ± 0.024 |
| ATTCATTG | -0.157 ± 0.03 |
| ACCACGAC | 0.0482 ± 0.0056 |
| GCCAATAC | 0.0256 ± 0.028 |
| ATAAGTGA | 0.214 ± 0.011 |
| AGCTGCCC | -0.168 ± 0.015 |
| AGCGTAGA | -0.103 ± 0.091 |
| AATCAGGA | -0.264 ± 0.028 |
| ACAACGGA | 0.0177 ± 0.034 |
| ATCACATG | 0.286 ± 0.019 |
| GACCCGCC | -0.0321 ± 0.059 |
| AATAGGTC | -0.258 ± 0.012 |
| ACCGATTA | -0.0842 ± 0.0046 |
| AATAGCGA | 0.285 ± 0.042 |
| AAACCACT | -0.263 ± 0.011 |
| GCCCGGAC | -0.187 ± 0.054 |
| CTGATTGA | -0.151 ± 0.033 |
